# Reference: PMC6919601, “Identification of Plasmodium dipeptidyl aminopeptidase allosteric inhibitors by high throughput screening” (PLoS ONE, 2019)
# Several values for one entry are separate records, joined by “and”; a condition that tells them apart may be missing. Equal values may be shown once. Among all 110,000 compounds or so, about 230 (0.21%) showed an effect of 50% or more. The list shows a part of the results.
# Target: DPAP1 (Plasmodium falciparum, UniProt Q8IIJ9)
# Test: primary screen, percent inhibition; read by cleavage of a fluorogenic dipeptide substrate; higher = more effect of the substance
# Design: species or system P. falciparum D10 trophozoite lysates; single well
# 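Further: 30 min substrate incubation versus DMSO and 10 µM JCP410 controls.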
# DPAP1, sequence (Q8IIJ9 whole entry, looked up): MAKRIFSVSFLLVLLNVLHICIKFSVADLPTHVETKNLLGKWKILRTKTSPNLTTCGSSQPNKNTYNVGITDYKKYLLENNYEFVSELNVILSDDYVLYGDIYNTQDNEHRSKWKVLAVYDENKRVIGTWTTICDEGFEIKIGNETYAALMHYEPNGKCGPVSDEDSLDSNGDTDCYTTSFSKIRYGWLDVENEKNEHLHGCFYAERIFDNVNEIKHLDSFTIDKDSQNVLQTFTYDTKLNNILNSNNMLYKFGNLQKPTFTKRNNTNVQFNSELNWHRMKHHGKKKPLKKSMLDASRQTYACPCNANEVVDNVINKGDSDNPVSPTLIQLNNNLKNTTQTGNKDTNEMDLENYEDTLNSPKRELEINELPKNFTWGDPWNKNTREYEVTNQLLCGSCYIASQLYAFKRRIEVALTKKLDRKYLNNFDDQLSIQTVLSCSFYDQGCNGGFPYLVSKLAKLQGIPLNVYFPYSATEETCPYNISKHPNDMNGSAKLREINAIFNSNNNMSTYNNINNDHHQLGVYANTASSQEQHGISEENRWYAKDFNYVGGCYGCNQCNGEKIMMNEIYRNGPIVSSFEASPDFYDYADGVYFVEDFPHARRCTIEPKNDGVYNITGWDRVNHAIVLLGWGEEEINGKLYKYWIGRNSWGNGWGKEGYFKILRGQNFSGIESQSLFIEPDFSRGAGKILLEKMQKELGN
row,SMILES,% Inhibition @ 10 uM
1,CCCCn1c(-c2ccc(OCC)cc2)cnc1NCc1cc(OC)c(O)c(OC)c1,2.31%
2,CC(C)Oc1ccc(/C=C2/Sc3ccccc3C2=O)cc1,-5.96%
3,CC1CCN(S(=O)(=O)c2cccc3nonc23)CC1,2.65%
4,N#CC1=C(N)OC2=C(C(=O)CC(c3ccccc3)C2)C1c1cccc(Cl)c1 (stereo not drawn),11.3%
5,CC(C)c1ccc(C2c3c(-c4ccccc4O)n[nH]c3C(=O)N2CCCO)cc1 (stereo not drawn),2.02%
6,Cc1cccc(-c2nnn3c2nc(O)c2ccccc23)c1,-7.62%
7,O=C(CCn1ccc2cc(S(=O)(=O)N3CCCC3)ccc21)NCc1cccnc1,-0.846%
8,C/C=C/COC(=O)C1=C(C)NC(=O)NC1c1ccccc1 (stereo not drawn),-2.2%
9,CCC(=O)N(c1ccccc1)C1CC(C)Nc2ccccc21 (stereo not drawn),-2.12%
10,COc1ccc(C(=O)Nc2cc(C(F)(F)F)ccc2Br)cc1[N+](=O)[O-],-6.18%
11,O=C(c1ccc(C(=O)N2CCc3ccccc3C2)cc1)N1CCc2ccccc2C1,-2.78%
12,CC1(C(=O)Nc2nc3ccccc3s2)Cc2ccccc2C(=O)O1 (stereo not drawn),-2.67%
13,O=C(N/C(=C\c1cn(-c2ccccc2)nc1-c1ccccc1)C(=O)N1CCOCC1)c1ccccc1,-4.67%
14,O=C(O)c1ccccc1SCC(=O)N1CCCCC1,5.38%
15,COCc1cc(C)nc(SCC(=O)Nc2cccc(C)c2)c1C#N,6.29%
16,Cc1nc2sccn2c(=O)c1S(=O)(=O)N1CCN(C2CCCCC2)CC1,3.5%
17,CCc1ccc(OCC(=O)N(CC)c2ccccc2)cc1,-1.89%
18,Cn1c(=O)c2c(nc3n(-c4ccc5c(c4)OCO5)c(-c4ccccc4)cn23)n(C)c1=O,1.58%
19,CCOc1ccc(C(=O)NCc2ccc(C)cc2)cc1,-1.82%
20,COC(=O)c1ccc(-c2ccc(CNCCNC(=O)c3nonc3N)o2)cc1,3.27%
21,C=CCc1cc(C)ccc1OCC(O)CN1CCCCC1 (stereo not drawn),0.389%
22,O=[N+]([O-])c1ccc(O)c([C@H]2NCC[C@@]3(O)CCCC[C@H]23)c1,-4.01%
23,O=C(Cc1ccc(-n2cccc2)cc1)NCc1cccs1,2.8%
24,COc1ccc(OC)c(/C=c2\sc3nc(-c4ccc(OC)c(OC)c4)nn3c2=O)c1,-1.18%
25,CN1C(=O)/C(=C/c2ccc(-c3ccc(C(=O)O)cc3)o2)S/C1=N/c1ccc(C(=O)O)cc1,3.86%
26,COC(=O)c1cc(C)c(Br)c([N+](=O)[O-])c1,0.968%

row,SMILES,% Inhibition @ 10 uM
1,Cc1ccc(-n2nnc(-c3nsc(NC(=O)c4ccccc4)n3)c2C)cc1Cl,-10.3%
2,Cc1sc(NC(=O)C2CCCCC2C(=O)O)c(C(N)=O)c1-c1ccc(C(C)C)cc1 (stereo not drawn),-0.318%
3,COc1cccc(/C=c2/sc3nc(/C=C/c4ccc(Cl)cc4)nn3c2=O)c1,3.25%
4,O=C(O)CCc1c(-c2ccc(Br)cc2)nc2ccccn12,2.38% and 4.31%
5,COc1ccc(S(=O)(=O)N(CC(=O)NC2CC3CCC2C3)c2ccc(Cl)cc2)cc1 (stereo not drawn),-2.28%
6,Nc1c(-c2nc(-c3ccccc3)no2)nnn1-c1ccc(F)cc1F,-0.485%
7,O=C(NCc1ccc(F)cc1)C1CCN(Cc2cnn(-c3ccccc3)c2-n2cccc2)CC1,-1.08%
8,COc1ccc2c(c1)CC/C(=C\c1ccc(OC)c(Cn3cccn3)c1)C2=O,2.59%
9,C=CCNC1=C(Cl)C(=O)N(c2ccc(Cl)cc2)C1=O,0.385%
10,Cc1ccc(C(=O)CC2(O)C(=O)N(C)c3ccc(Br)cc32)c(C)c1 (stereo not drawn),3.21%
11,Cc1csc(NC(=O)CCNS(=O)(=O)c2cc(Br)cnc2N)n1,0.813%
12,Nc1c(C(=O)NCc2ccccc2)nnn1Cc1ccc(F)cc1Cl,-0.58%
13,COc1ccc(-c2cc(C)no2)cc1S(=O)(=O)N1CC=C(c2ccccc2)CC1,1.84%
14,O=C(c1ccc([N+](=O)[O-])cc1Cl)N1CCc2ccccc21,-3.15%
15,CCN(CC)C(=O)COc1ccc(-c2nnc(NCc3ccccc3)c3ccccc23)cc1,-5.15%
16,CCCSCCCNC(=O)c1cc(C)nc2c1c(C)nn2-c1cccc(Cl)c1C,-3%
17,Cc1ccc(Cn2c(=O)c3cccnc3n(Cc3ccc(Cl)cc3)c2=O)cc1,-3.44%
18,Nc1nc(-c2ccc(-c3ccccc3)cc2)cc(-c2ccccc2O)n1,-8.3%
19,O=S(=O)(c1ccc(-c2ccccc2)cc1)N1CCSC1c1ccco1 (stereo not drawn),-5.81%
20,CC(C(=O)c1ccc2ccccc2c1)N1CCCCC1 (stereo not drawn),3.24%
21,Cc1cccc(N2C(=O)CC(N3CCc4ccccc4C3)C2=O)c1 (stereo not drawn),-8.4%
22,O=C(O)CCC(=O)NCCNC(=O)C1CCCNC1=O (stereo not drawn),2.03%
23,CCCCN(CCCC)C(=O)c1cc(-c2ccccc2)[nH]n1,-2.56%
24,CCOc1ccc(CCNc2ncnc3c2nc2n3CCCCC2)cc1OCC,3.48%
25,O=c1cc2nc(-c3ccccc3)nc(SCCOc3ccccc3Cl)n2[nH]1,0.234%
